# Measurements published in the supplement of paper PMC3334620.
# Over roughly 33,000 sequences, “E-score (-0.5 to 0.5)” has its median near -0.032; the highest 2% begin near 0.36. This is one part of the list.
# Target: T1, Sko1 (UniProt Q02100)
# T1 sequence: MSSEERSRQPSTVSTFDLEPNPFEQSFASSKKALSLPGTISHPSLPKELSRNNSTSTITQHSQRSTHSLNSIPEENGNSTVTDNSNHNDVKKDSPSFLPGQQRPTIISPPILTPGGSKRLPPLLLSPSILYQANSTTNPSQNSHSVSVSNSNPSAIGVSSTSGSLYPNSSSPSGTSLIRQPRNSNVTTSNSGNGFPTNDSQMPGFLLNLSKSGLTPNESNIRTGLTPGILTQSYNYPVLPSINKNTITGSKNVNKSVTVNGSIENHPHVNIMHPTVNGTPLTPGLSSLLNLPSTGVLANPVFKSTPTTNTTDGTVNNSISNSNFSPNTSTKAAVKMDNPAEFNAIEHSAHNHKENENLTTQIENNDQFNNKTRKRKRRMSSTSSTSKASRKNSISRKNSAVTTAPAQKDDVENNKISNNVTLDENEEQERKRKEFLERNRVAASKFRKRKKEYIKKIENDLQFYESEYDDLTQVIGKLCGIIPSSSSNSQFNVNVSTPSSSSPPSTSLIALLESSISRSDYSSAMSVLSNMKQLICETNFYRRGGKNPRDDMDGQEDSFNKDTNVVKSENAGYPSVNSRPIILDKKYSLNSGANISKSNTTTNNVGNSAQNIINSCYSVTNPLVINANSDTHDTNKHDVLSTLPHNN
# Assay: PBM E-score (8-mer binding enrichment) (E-score (-0.5 to 0.5)); higher = stronger / more preferred TF binding; most listed sequences are background and not binding sites
# Conditions: protein concentration: 200 nM; construct: GST-full length
# Procedure, shortened: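 Full-length yeast transcription factors or their DNA-binding domains, GST-tagged and expressed with PURExpress, were applied at about 100-200 nM to universal all-10-mer Agilent arrays. These arrays had been made double-stranded by primer extension on fresh or once-stripped slides. Detection used fluorescent anti-GST, normalisation used masliner, and E-scores for ungapped eight-base words pooled with reverse complements came from the Universal PBM Analysis Suite.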
row,Sequence,PBM E-score
1,ATTCCCGA,-0.193
2,ACGTTTAC,0.345
3,CATACACA,-0.00338
4,AATTAAAA,0.193
5,TGTTTTAA,0.182
6,CGAATGGA,0.199
7,AATGAATG,0.186
8,CCTCGGTC,-0.189
9,CATTAGAG,-0.134
10,CTTAGAAC,0.166
11,AGACTCAA,-0.0311
12,CTAAAACA,0.0185
13,ATGTCGAA,-0.0346
14,CATCCGGA,-0.204
15,ACCCACCA,-0.0624
16,TACACTCA,0.175
17,GGGGCGGA,-0.338
18,AGTAGTCC,0.0244
19,GCTCGTGA,-0.116
20,ACCACGAT,0.136
21,CTCTAGTA,0.119
22,AATTCTTC,0.191

row,Sequence,PBM E-score
1,CTCTAACA,0.0537
2,CATTCTGG,0.00955
3,CTGAAGGA,-0.233
4,AAGTGGCG,0.102
5,CGATATGC,0.00147
6,CATTACAC,0.198
7,GGTTCTAA,0.0715
8,CCTCTTTC,-0.349
9,CAGTTTGG,-0.164
10,GCGTGAGC,0.0263
11,GTCCACCA,-0.16
12,AAATGCTG,0.183
13,AGCGATGG,-0.247
14,CTGGCCGC,-0.156
15,CTCAGTAA,0.061
16,GAATAAGA,0.0165
17,CTTGGTGA,0.00399
18,CCTGAGTA,-0.0205
19,AATTAAGC,0.131
20,CTTTAACC,-0.248
21,AACTATGC,0.033
22,ACGTTGAG,0.23

row,Sequence,PBM E-score
1,AAGCCAAA,-0.0352
2,CCGGAAGG,-0.294
3,TAGAATAA,0.0957
4,CATAGCCC,-0.0416
5,ATAAACTG,-0.0252
6,CATCTGGC,-0.0626
7,AAATTATA,0.235
8,CATTTCGA,0.0809
9,TCATTGAA,0.146
10,GAGCGGGA,-0.19
11,CTGGAATC,-0.142
12,CACAGGCC,-0.24
13,GGGCACAC,-0.141
14,ACCCTTTA,0.0342
15,AGCCCCCC,-0.355
16,ACGGCAAA,0.0363
17,CAATATCG,0.0717
18,ATTATAAG,0.147
19,GCTTAGGA,-0.201
20,CGGAGCCA,-0.319
21,CCATTACA,0.089
22,GAGGGCAC,-0.279

row,Sequence,PBM E-score
1,CATCGTGC,0.116
2,CCTATGCG,0.00492
3,AACCGTCG,-0.0293
4,ATCCCGCA,-0.0927
5,GTCCTTGA,-0.035
6,AAAAGCGA,0.0693
7,AACCCCCC,-0.417
8,ATGCCCCC,-0.235
9,CGCAGAGC,-0.13
10,CTAACTGC,-0.0657
11,GCATCTTA,0.0858
12,ACCTACAG,-0.146
13,CTCCGTGA,-0.112
14,CATCAAGG,-0.0767
15,GTACTAAC,0.166
16,CCAATTAC,0.275
17,AATGGTAG,0.0473
18,GACCACAA,-0.165
19,GTCGCTGA,0.0246
20,ACATACAG,0.248
21,GAGACTAC,-0.0885
22,CCGAAAAC,0.0533

row,Sequence,PBM E-score
1,AAGACTGA,0.0273
2,CAGAACGC,-0.0689
3,GAACCCGA,-0.121
4,GCACTACC,-0.0837
5,AAAAGAAA,0.17
6,AGGTAACA,0.127
7,GAATGAAC,0.142
8,GCAATCCC,-0.0317
9,AAGCAGCG,-0.0423
10,ACAGTCGA,-0.154
11,CTGTTCTC,-0.106
12,CGCGAACC,-0.0595
13,ATTCCTGC,0.0663
14,AAGTTTTC,0.107
15,CGACAAAG,0.0583
16,CAAATCTA,0.0876
17,GAGTCTCC,-0.211
18,CCCTCGGC,-0.273
19,GCAAACAC,0.137
20,AAAGTCCT,-0.124
21,ACGCAAAG,0.276
